# Experimental data as given in ChEMBL document CHEMBL5606460, “ASAP - DENV-2 NS2B-NS3 protease fluorescence single point” (2024).
# The campaign covered roughly 2,000 compounds. About 110 (5.5%) showed an effect of 50% or more. The list shows a part of the results.
# Molecular target: Genome polyprotein (dengue virus type 2) (UniProt P29990)
# [1] = Thailand/16681/1984, Concentration 25.0 uM, Number of replicates 1.0
compound,measurement,setting,value
COc1ccc([C@@H]2CCCN2C(=O)C2CCN(c3ccc(C=O)cc3)CC2)cc1,inhibition,[1],14.1%
O=Cc1ccc(N2CCC(C(=O)Nc3cnc4sccn4c3=O)CC2)cc1,inhibition,[1],19.7%
Cc1cc(CO)c2cccc(NC(=O)C(=O)c3ccco3)c2n1,inhibition,"Thailand/16681/1984, Concentration 49.95 uM, Number of replicates 2.0, Standard deviation 1.9477646790136023 %",6.42%
same,inhibition,"Thailand/16681/1984, Concentration 99.9 uM, Number of replicates 2.0, Standard deviation 0.958680982773286 %",10.7%
Cc1cnccc1NC(=O)c1ccn(CC(C)C)n1,inhibition,"Thailand/16681/1984, Concentration 49.5 uM, Number of replicates 2.0, Standard deviation 0.033579405732993534 %",-2.94%
same,inhibition,"Thailand/16681/1984, Concentration 99.01 uM, Number of replicates 2.0, Standard deviation 0.865071652118832 %",-3.19%
same,inhibition,"Thailand/16681/1984, Concentration 198.0 uM, Number of replicates 2.0, Standard deviation 1.2994729819870372 %",-3.3%
Cc1cnccc1NC(=O)c1cccn(C[C@@H]2CCNC2)c1=O,inhibition,"Thailand/16681/1984, Concentration 49.5 uM, Number of replicates 2.0, Standard deviation 0.09863272923477039 %",4.57%
same,inhibition,"Thailand/16681/1984, Concentration 99.01 uM, Number of replicates 2.0, Standard deviation 0.0802068014153837 %",8.01%
same,inhibition,"Thailand/16681/1984, Concentration 198.0 uM, Number of replicates 2.0, Standard deviation 1.070868475663948 %",14.4%
O=Cc1ccc(N2CCC(C(=O)NCc3ccc(I)cc3)CC2)cc1,inhibition,[1],13.4%
O=C(Nc1cccc(O)c1)c1cccc(OCc2c(Cl)cccc2Cl)c1,inhibition,"Thailand/16681/1984, Concentration 49.5 uM, Number of replicates 2.0, Standard deviation 2.2599777431890864 %",6.58%
same,inhibition,"Thailand/16681/1984, Concentration 99.01 uM, Number of replicates 2.0, Standard deviation 0.8121141369648937 %",8.41%
same,inhibition,"Thailand/16681/1984, Concentration 198.0 uM, Number of replicates 2.0, Standard deviation 0.4931997238761773 %",11.9%
O=Cc1ccc(N2CCC(C(=O)NCCSc3ccc(Cl)cc3)CC2)cc1,inhibition,[1],6.43%
COc1cc(COc2cc(C)nc3ncnn23)nc(N2CCNCC2)n1,inhibition,"Thailand/16681/1984, Concentration 49.5 uM, Number of replicates 2.0, Standard deviation 19.015038260433418 %",2.91%
same,inhibition,"Thailand/16681/1984, Concentration 99.01 uM, Number of replicates 2.0, Standard deviation 2.9676776148278794 %",-6.71%
same,inhibition,"Thailand/16681/1984, Concentration 198.0 uM, Number of replicates 2.0, Standard deviation 6.9135926030191905 %",-3.12%
C[C@H](NC(=O)C1CCN(c2ccc(C=O)cc2)CC1)c1cc(F)ccc1F,inhibition,[1],11%
NC(=O)c1sccc1NS(=O)(=O)c1ccc(Oc2ccccc2)cc1,inhibition,"Thailand/16681/1984, Concentration 49.5 uM, Number of replicates 2.0, Standard deviation 0.12353190722324828 %",3.89%
same,inhibition,"Thailand/16681/1984, Concentration 99.01 uM, Number of replicates 2.0, Standard deviation 0.11961073302518874 %",8.6%
same,inhibition,"Thailand/16681/1984, Concentration 198.0 uM, Number of replicates 2.0, Standard deviation 0.07843359920483335 %",16.6%
O=C(O)c1cccc(NC(=O)c2cccnc2)c1,inhibition,"Thailand/16681/1984, Concentration 49.5 uM, Number of replicates 2.0, Standard deviation 0.5754076787322825 %",-0.074%
same,inhibition,"Thailand/16681/1984, Concentration 99.01 uM, Number of replicates 2.0, Standard deviation 0.4240348488616172 %",0.945%
same,inhibition,"Thailand/16681/1984, Concentration 198.0 uM, Number of replicates 2.0, Standard deviation 0.6389174792744691 %",2.26%
COc1cc2nc(Cl)nc(NC(=O)C3CCN(c4ccc(C=O)cc4)CC3)c2cc1OC,inhibition,[1],14.4%
Cc1ccc(CN(C(=O)C2CCN(c3ccc(C=O)cc3)CC2)C2CC2)s1,inhibition,[1],14.9%
CCCCCCCCCCNC(=O)C1CCN(c2ccc(C=O)cc2)CC1,inhibition,[1],13.4%
NCc1cccc(NC(=O)[C@@H](NC(=O)OCc2ccccc2)c2ccc(OCc3ccccc3)cc2)c1,inhibition,"Thailand/16681/1984, Concentration 49.5 uM, Number of replicates 2.0, Standard deviation 0.05193031216203084 %",99.8%
same,inhibition,"Thailand/16681/1984, Concentration 99.01 uM, Number of replicates 2.0, Standard deviation 0.07343936624368645 %",99.8%
same,inhibition,"Thailand/16681/1984, Concentration 198.0 uM, Number of replicates 2.0, Standard deviation 0.025182910572653226 %",99.6%
CN1[C@@H]2CCC[C@H]1C[C@@H](NC(=O)C1CCN(c3ccc(C=O)cc3)CC1)C2,inhibition,[1],13.1%
O=Cc1ccc(N2CCC(C(=O)NCC(c3ccccc3)c3ccccc3)CC2)cc1,inhibition,[1],-2.96%
Cn1cc(NC(=O)c2ccccc2C(F)(F)F)c(-c2cnn(C)n2)n1,inhibition,"Thailand/16681/1984, Concentration 49.5 uM, Number of replicates 2.0, Standard deviation 0.32036291597833877 %",-2.97%
same,inhibition,"Thailand/16681/1984, Concentration 99.01 uM, Number of replicates 2.0, Standard deviation 1.175972600606475 %",-3.46%
same,inhibition,"Thailand/16681/1984, Concentration 198.0 uM, Number of replicates 2.0, Standard deviation 1.0582279614459547 %",-3.2%
Cc1cc(Cl)c2cccc(NC(=O)CCN)c2n1,inhibition,"Thailand/16681/1984, Concentration 49.95 uM, Number of replicates 2.0, Standard deviation 0.0008200090846279543 %",99.2%
same,inhibition,"Thailand/16681/1984, Concentration 99.9 uM, Number of replicates 2.0, Standard deviation 0.04112992935002318 %",98.9%
NCCOc1ccc2c(c1)B(O)OC2,inhibition,"Thailand/16681/1984, Concentration 49.5 uM, Number of replicates 2.0, Standard deviation 1.4321505867497555 %",3.29%
same,inhibition,"Thailand/16681/1984, Concentration 99.01 uM, Number of replicates 2.0, Standard deviation 3.200083598299257 %",3.45%
same,inhibition,"Thailand/16681/1984, Concentration 198.0 uM, Number of replicates 2.0, Standard deviation 3.5663203243086112 %",3.25%
O=Cc1ccc(N2CCC(C(=O)NCC(=O)c3ccccc3F)CC2)cc1,inhibition,[1],12.6%
O=Cc1ccc(N2CCC(C(=O)Nc3cc(C(F)(F)F)ccc3N3CCCC3)CC2)cc1,inhibition,[1],-2.44%
CN(C)Cc1cc(C(=O)Nc2cc(Cl)cc(C(=O)NC(C)(C)CO)c2)ccn1,inhibition,"Thailand/16681/1984, Concentration 49.5 uM, Number of replicates 2.0, Standard deviation 0.8373879793632091 %",-0.805%
same,inhibition,"Thailand/16681/1984, Concentration 99.01 uM, Number of replicates 2.0, Standard deviation 1.3878191722501325 %",-0.768%
same,inhibition,"Thailand/16681/1984, Concentration 198.0 uM, Number of replicates 2.0, Standard deviation 1.150645337077672 %",-0.077%
O=Cc1ccc(N2CCC(C(=O)NCCC3CCN(Cc4ccccc4)CC3)CC2)cc1,inhibition,[1],12.2%
Cc1cc(CO)c2cccc(NC(=O)C[C@H]3CCCN3)c2n1,inhibition,"Thailand/16681/1984, Concentration 49.95 uM, Number of replicates 2.0, Standard deviation 1.87682580099837 %",7.72%
same,inhibition,"Thailand/16681/1984, Concentration 99.9 uM, Number of replicates 2.0, Standard deviation 2.520000533440925 %",13.9%
